In the BET-seq Pho4 binding data (Le et al. 2018):
The list shows a part of the results. Values were computed here from the reads of four pooled replicates and scatter widely.

The sequences below were run against T1, Pho4 (S. cerevisiae) (UniProt P07270) (assay: relative binding free energy (BET-seq); higher = weaker binding). Settings: reference: library average.
T1 sequence: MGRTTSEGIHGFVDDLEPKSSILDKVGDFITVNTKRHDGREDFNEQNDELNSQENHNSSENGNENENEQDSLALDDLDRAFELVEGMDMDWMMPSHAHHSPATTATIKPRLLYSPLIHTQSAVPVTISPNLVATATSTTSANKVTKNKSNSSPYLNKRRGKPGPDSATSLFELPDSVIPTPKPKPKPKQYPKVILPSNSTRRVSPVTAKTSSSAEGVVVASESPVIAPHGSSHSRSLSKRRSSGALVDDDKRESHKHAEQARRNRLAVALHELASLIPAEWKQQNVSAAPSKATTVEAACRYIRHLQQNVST

| Sequence | relative binding free energy |
| --- | --- |
| TTTGACACGTGATGCA | 0.06 kcal/mol |
| TTTGTCACGTGGAGGA | 0.12 kcal/mol |
| GATTTCACGTGTCATG | 0.37 kcal/mol |
| TGTTTCACGTGAAAGG | 0.31 kcal/mol |
| GAGGACACGTGCAGTG | 0.09 kcal/mol |
| GTGTACACGTGATATA | 0.01 kcal/mol |
| TTTAGCACGTGTCTTT | -0.08 kcal/mol |
| ATGTTCACGTGTTTGA | 0.23 kcal/mol |
| TCGTGCACGTGGTTGC | -0.01 kcal/mol |
| GAGGCCACGTGGGTTC | 0 kcal/mol |
| TGAGTCACGTGGTGTT | 0.11 kcal/mol |
| AGAGTCACGTGATTAT | 0.24 kcal/mol |
| TTCGGCACGTGAGTAT | 0.12 kcal/mol |
| CCGTGCACGTGTTGGT | 0.07 kcal/mol |
| GTAGGCACGTGGAATG | 0 kcal/mol |
| ATTGTCACGTGGCGCT | 0.06 kcal/mol |
| ATGGACACGTGAGCTG | 0.18 kcal/mol |
| CCGTACACGTGTGGGG | 0.1 kcal/mol |
| CGAGGCACGTGGAGTG | -0.22 kcal/mol |
| ATGTGCACGTGTGGGG | 0 kcal/mol |

| Sequence | relative binding free energy |
| --- | --- |
| TAAGGCACGTGCAATG | -0.01 kcal/mol |
| TTACGCACGTGTTTAT | -0.12 kcal/mol |
| CTCAGCACGTGGTTGT | -0.14 kcal/mol |
| AGTTACACGTGGTTGA | 0.01 kcal/mol |
| CTAGTCACGTGTGTGG | 0.1 kcal/mol |
| AATTACACGTGGAGTT | 0.06 kcal/mol |
| GGTTACACGTGAGCGT | 0.32 kcal/mol |
| GTGTGCACGTGGTATA | -0.12 kcal/mol |
| AATTGCACGTGGGGGT | -0.16 kcal/mol |
| ATAGGCACGTGTGGGG | 0 kcal/mol |
| CTATTCACGTGTCGTG | 0.25 kcal/mol |
| TCGTACACGTGCGGGG | 0.13 kcal/mol |
| CTCATCACGTGTGTGT | 0.2 kcal/mol |
| TCGAGCACGTGACGGT | 0.06 kcal/mol |
| GGAAACACGTGTGTAT | 0.23 kcal/mol |
| GTGGTCACGTGGAGTG | 0.04 kcal/mol |
| AAGGTCACGTGGGGTG | -0.04 kcal/mol |
| TTTCGCACGTGTTCTT | -0.06 kcal/mol |
| GGGTTCACGTGTATGC | 0.27 kcal/mol |
| TTCGCCACGTGTTTGG | -0.02 kcal/mol |

| Sequence | relative binding free energy |
| --- | --- |
| GCTATCACGTGCGGGG | 0.09 kcal/mol |
| GGGCCCACGTGGGAGG | -0.29 kcal/mol |
| TATAGCACGTGTATTC | 0.03 kcal/mol |
| GTTAGCACGTGTGCGG | -0.06 kcal/mol |
| TGTGACACGTGGGGAA | -0.12 kcal/mol |
| ATGGACACGTGAGAGG | 0.3 kcal/mol |
| CTGTTCACGTGATGTG | 0.18 kcal/mol |
| TTGCACACGTGTAGTG | 0.13 kcal/mol |
| TAGTGCACGTGATGCG | 0 kcal/mol |
| ACGAGCACGTGTGATG | 0.05 kcal/mol |
| ATAATCACGTGGGAGT | 0 kcal/mol |
| TGCGTCACGTGAATTA | 0.33 kcal/mol |
| ATTAACACGTGGGGCT | -0.09 kcal/mol |
| TTATTCACGTGATCTG | 0.29 kcal/mol |
| AATTGCACGTGAGGGC | 0.17 kcal/mol |
| TGCTTCACGTGGTCAT | 0.3 kcal/mol |
| TTGATCACGTGGGATA | 0.09 kcal/mol |
| ATAGTCACGTGGATAA | 0.02 kcal/mol |
